{
  "source": "the antibiotic and cytotoxicity screens of Wong et al. (2023)",
  "note": "The other results are listed elsewhere or left out.",
  "data": [
    {"test_system": "HepG2", "test": "cytotoxicity call (relative viability < 0.9)", "settings": "10 µM", "values": [
      {"smiles": "Cc1ccc(S(=O)(=O)Nc2ccc3c(c2)C(=O)N([C@H](C)CO)C[C@@H](C)[C@@H](CN(C)S(=O)(=O)c2c(C)noc2C)O3)cc1", "cytotoxicity call": "inactive"},
      {"smiles": "C[C@H]1CN([C@@H](C)CO)C(=O)Cc2cc(NC(=O)Nc3ccc(F)cc3)ccc2O[C@H]1CN(C)Cc1ccc(-c2ccccc2)cc1", "cytotoxicity call": "active"},
      {"smiles": "COc1ccc(NC(=O)Nc2ccc3c(c2)C(=O)N([C@H](C)CO)C[C@@H](C)[C@H](CN(C)Cc2ccc(C(=O)O)cc2)OCCCC[C@@H](C)O3)cc1", "cytotoxicity call": "inactive"},
      {"smiles": "C[C@@H]1CCCCO[C@H](CN(C)S(=O)(=O)c2ccc(Cl)cc2)[C@H](C)CN([C@H](C)CO)C(=O)c2cc(NC(=O)Cc3ccccc3)ccc2O1", "cytotoxicity call": "active"},
      {"smiles": "C[C@@H]1CN([C@H](C)CO)C(=O)Cc2cc(NC(=O)Nc3ccccc3)ccc2O[C@@H]1CN(C)Cc1ccc(Oc2ccccc2)cc1", "cytotoxicity call": "active"},
      {"smiles": "Cc1noc(C)c1S(=O)(=O)N(C)C[C@H]1OCCCC[C@H](C)Oc2ccc(NC(=O)Nc3ccccc3)cc2C(=O)N([C@H](C)CO)C[C@H]1C", "cytotoxicity call": "inactive"},
      {"smiles": "CN(C)CCCCCCNC(=O)[C@@H]1C[C@@H]2C(=O)N[C@@H](CCCC[N+](C)(C)C)C(=O)N2[C@@H]1c1cccc(OCCO)c1", "cytotoxicity call": "inactive"},
      {"smiles": "C[C@@H]1CN([C@H](C)CO)C(=O)c2cc(NC(=O)CCC(F)(F)F)ccc2O[C@@H](C)CCCCO[C@@H]1CN(C)Cc1ccc(C(=O)O)cc1", "cytotoxicity call": "inactive"},
      {"smiles": "C[C@@H]1CN([C@H](C)CO)C(=O)Cc2cc(NC(=O)CCN3CCOCC3)ccc2O[C@@H]1CN(C)S(=O)(=O)c1cccs1", "cytotoxicity call": "inactive"},
      {"smiles": "C[C@@H]1CN([C@H](C)CO)C(=O)c2cccc(NC(=O)C3CC3)c2O[C@H]1CN(C)Cc1ccc(C(=O)O)cc1", "cytotoxicity call": "inactive"},
      {"smiles": "Cl.NC(N)=NC(=O)Cc1c(Cl)cccc1Cl", "cytotoxicity call": "inactive"},
      {"smiles": "COc1ccc(S(=O)(=O)N(C)C[C@H]2Oc3ccc(NS(=O)(=O)c4ccccc4)cc3CC(=O)N([C@H](C)CO)C[C@H]2C)cc1", "cytotoxicity call": "inactive"},
      {"smiles": "COCC(=O)N1[C@@H]2c3ccc(C4=CCCC4)c(=O)n3C[C@@H]2[C@@H](CO)[C@@H]1C(=O)N1CCN(C)CC1", "cytotoxicity call": "inactive"},
      {"smiles": "C[C@@H]1CN([C@@H](C)CO)C(=O)c2cc(NC(=O)C3CCCCC3)ccc2O[C@@H](C)CCCCO[C@@H]1CN(C)C(=O)c1ccncc1", "cytotoxicity call": "inactive"},
      {"smiles": "Cc1noc(C)c1NC(=O)N(C)C[C@H]1Oc2ccc(NS(=O)(=O)c3cccs3)cc2CC(=O)N([C@@H](C)CO)C[C@@H]1C", "cytotoxicity call": "inactive"},
      {"smiles": "CCCCC[C@@H](C)N", "cytotoxicity call": "inactive"},
      {"smiles": "CCC(CC)c1ccc(O)cc1", "cytotoxicity call": "inactive"},
      {"smiles": "C=CCNC(=O)C(=O)NC[C@H]1OCCCN1S(=O)(=O)c1ccccc1", "cytotoxicity call": "inactive"},
      {"smiles": "COCCOC(=O)N1C(=O)[C@@]2(c3cc(C#CCC(C(=O)OC)C(=O)OC)ccc31)[C@H](C(=O)N1CCc3cc(OC)c(OC)cc3C1)[C@H]1C(=O)O[C@H](c3ccccc3)[C@H](c3ccccc3)N1[C@@H]2c1ccc(O)cc1", "cytotoxicity call": "inactive"},
      {"smiles": "C[C@H](O)C#Cc1ccc2c(c1)O[C@H](CN(C)C(=O)Cc1ccccn1)[C@H](C)CN([C@H](C)CO)S2(=O)=O", "cytotoxicity call": "inactive"},
      {"smiles": "NCCONC(=O)[C@@H]1CC[C@@H]2CN1C(=O)N2OS(=O)(=O)O", "cytotoxicity call": "inactive"},
      {"smiles": "C[C@@H]1CCCCO[C@@H](CN(C)S(=O)(=O)c2ccc(F)cc2)[C@H](C)CN([C@@H](C)CO)C(=O)c2cc(NC(=O)Nc3cccc4ccccc34)ccc2O1", "cytotoxicity call": "inactive"},
      {"smiles": "Cc1ccc(S(=O)(=O)Nc2ccc3c(c2)C(=O)N([C@@H](C)CO)C[C@@H](C)[C@@H](CN(C)Cc2ccc(Cl)c(Cl)c2)OCCCC[C@@H](C)O3)cc1", "cytotoxicity call": "active"},
      {"smiles": "CC(C)C#Cc1ccc2c(c1)O[C@@H](CN(C)C(=O)Cc1ccccn1)[C@H](C)CN([C@H](C)CO)S2(=O)=O", "cytotoxicity call": "inactive"},
      {"smiles": "O=C(C[C@@H]1CC[C@@H]2[C@H](COC[C@H](O)CN2C(=O)c2ccccc2)O1)NCCCN1CCOCC1", "cytotoxicity call": "inactive"},
      {"smiles": "C[C@H]1CN([C@@H](C)CO)C(=O)Cc2cc(NC(=O)Cc3cn(C)c4ccccc34)ccc2O[C@H]1CN(C)C(=O)Nc1cccc2ccccc12", "cytotoxicity call": "inactive"},
      {"smiles": "Cc1noc(C)c1S(=O)(=O)N(C)C[C@H]1OCc2cnnn2CCCC(=O)N([C@@H](C)CO)C[C@H]1C", "cytotoxicity call": "inactive"},
      {"smiles": "Cc1ccc2nc(CN)[nH]c2c1", "cytotoxicity call": "inactive"},
      {"smiles": "CO[C@H]1CN(C)C(=O)c2cc(NS(=O)(=O)CC(F)(F)F)ccc2OC[C@@H](C)N(Cc2ccccn2)C[C@@H]1C", "cytotoxicity call": "inactive"}
    ]}
  ]
}
